This note sets out measurements from US20160058880.

The test system of series [1] is N-succinyl-beta-alanyl-L-leucyl-L-alanyl-L-leucyl-doxorubicin.
In a further series the test system is T1, NH2-Gly-Pro-Doxorubicin.
T1 sequence: GP

As to FAP (sequence not shown), the “hydrolysis by purified FAP” value is given as “Neither CD26 nor FAP hydrolized either PhAc-ALGP-Dox, Suc-βALAL-Dox or LGP-Dox” in the series on LGP-Dox; “Neither CD26 nor FAP hydrolized either PhAc-ALGP-Dox, Suc-βALAL-Dox or LGP-Dox” in series [1]; “Neither CD26 nor FAP hydrolized either PhAc-ALGP-Dox, Suc-βALAL-Dox or LGP-Dox” in the series with PhAc-ALGP-doxorubicin. The “conversion to Dox after 3 h incubation at 37° C. with purified FAP” value in the series on NH2-Gly-Pro-Doxorubicin is 62% conversion to Dox after 3 h incubation at 37 °C.
